# Reference: the supplement of paper PMC3334620
# Over roughly 33,000 sequences, “E-score (-0.5 to 0.5)” has its median near -0.032; the highest 2% begin near 0.36. Some of the results follow.
# Target: T1, Sko1 (UniProt Q02100)
# T1 sequence: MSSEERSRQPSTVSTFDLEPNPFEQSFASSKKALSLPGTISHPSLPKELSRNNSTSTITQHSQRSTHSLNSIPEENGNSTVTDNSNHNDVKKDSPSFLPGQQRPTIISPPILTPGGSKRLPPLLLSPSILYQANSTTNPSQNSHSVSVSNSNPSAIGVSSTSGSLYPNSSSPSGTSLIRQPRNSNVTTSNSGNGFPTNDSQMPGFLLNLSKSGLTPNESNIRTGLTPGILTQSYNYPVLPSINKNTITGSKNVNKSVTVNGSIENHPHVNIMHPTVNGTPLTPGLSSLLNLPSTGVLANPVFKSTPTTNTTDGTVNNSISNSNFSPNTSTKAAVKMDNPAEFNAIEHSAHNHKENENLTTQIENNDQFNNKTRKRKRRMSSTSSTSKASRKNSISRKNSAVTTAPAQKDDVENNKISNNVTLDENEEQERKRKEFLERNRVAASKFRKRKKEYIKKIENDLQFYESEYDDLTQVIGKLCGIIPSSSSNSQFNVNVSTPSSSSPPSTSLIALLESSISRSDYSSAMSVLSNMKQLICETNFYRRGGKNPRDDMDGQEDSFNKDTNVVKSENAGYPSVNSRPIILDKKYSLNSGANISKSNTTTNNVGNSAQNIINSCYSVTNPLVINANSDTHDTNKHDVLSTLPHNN
# Assay: PBM E-score (8-mer binding enrichment) (E-score (-0.5 to 0.5)); higher = stronger / more preferred TF binding; most listed sequences are background and not binding sites
# Details: protein concentration: 200 nM; construct: GST-full length
# Method in brief: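 Universal all-10-mer Agilent arrays, fresh or stripped once, were converted to double-stranded form by primer extension. GST-tagged yeast transcription factors from PURExpress in vitro transcription/translation, full-length or DNA-binding domain only, were applied at about 100-200 nM and detected with fluorescent anti-GST. After masliner normalisation, the Universal PBM Analysis Suite scored each ungapped eight-base word together with its reverse complement by E-score.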
row,Sequence,PBM E-score
1,GGATGAGA,-0.121
2,CGTGGTGC,0.147
3,ATTGGTGA,0.0106
4,ATTACACA,0.283
5,GAGTTCAA,0.142
6,CCACATGC,0.0567
7,ACTTAGGG,-0.172
8,AAAGATTG,-0.183
9,CGGTTTGC,-0.12
10,GGGCGGCA,-0.339
11,CTGAATCC,0.0664
12,AGCCTCAG,-0.235
13,AGGAATCG,-0.0809
14,CCGAGCGG,-0.267
15,CATGGTGC,-0.11
16,GTCATTTA,0.353
17,AAGTTTAG,0.116
18,CACCGCGC,-0.039
19,AGGGTTTG,-0.161
20,ATCACACG,0.203
21,CGGTTTGA,-0.0856
22,ATTCTGAA,0.0223
23,CAGGAGCA,-0.202
24,CATCGTCC,0.0258
25,GCGGCCGA,-0.107

row,Sequence,PBM E-score
1,AAGACTGC,-0.0959
2,ACACAGCA,0.0577
3,AGCGACTG,0.0636
4,TAAATAGA,-0.00812
5,AACAGACA,-0.00885
6,AGATGCAA,-0.0244
7,AACAGCAG,-0.164
8,CAATTCCG,-0.184
9,GACAGACC,-0.103
10,AGATTCTC,-0.0717
11,ATCACGAC,0.148
12,GCACTTGA,0.14
13,CGTATCAA,0.261
14,AACAATAG,-0.138
15,CTGATCAG,0.00719
16,TGATTCCA,-0.0363
17,ACACCTTA,0.226
18,ATGCGCTC,-0.0166
19,CACATGTC,0.0673
20,ACATAAGA,0.232
21,ATTGTCGA,0.0238
22,AATGCAGG,-0.144
23,ATGCGCCG,-0.0817
24,AGTGCGCA,0.0799
25,CAGGAGCC,-0.259

row,Sequence,PBM E-score
1,ACTACGAT,0.194
2,GTGGCACA,-0.00841
3,AGGTTGGC,-0.171
4,AGTGTACC,-0.188
5,GCCGGCGC,-0.245
6,CTGGTTCC,-0.157
7,CTTTTTTC,0.0359
8,CCGATGAA,-0.198
9,TAGCCCGA,-0.201
10,AGAGTCCT,-0.326
11,GATCCTGC,-0.0553
12,CACTTATG,0.0701
13,GACCCAGA,-0.16
14,CCCGAAGC,-0.257
15,TACTGCCA,-0.0579
16,CGCGGGAG,-0.215
17,TCTTCTCA,-0.00235
18,ATTAAAAC,0.129
19,GCGCCAAC,-0.0525
20,ACCAGAGT,-0.256
21,CCGCCGGA,-0.239
22,GCTCACGA,-0.0423
23,GATTGTCC,-0.196
24,ATGCGTGA,0.137
25,ATGCTGTC,0.0727

row,Sequence,PBM E-score
1,AACCAAGC,-0.0985
2,ACAGTTAC,0.102
3,AACCACGC,0.111
4,ACAATATC,0.207
5,CGGTCGGA,-0.233
6,CTATGGTA,-0.155
7,GACCATAA,-0.108
8,CGCGTACA,0.209
9,AGTGCGTC,0.225
10,TAAAGGAA,-0.0286
11,CGTAGACC,0.04
12,AGCGTTCG,-0.105
13,ATAGGGCG,-0.12
14,ATAAGCCA,0.105
15,ACAGGTGG,-0.165
16,CGCCCACA,0.0694
17,ATGCTACA,-0.0758
18,AAGGTAGC,-0.229
19,CCTGCACG,0.00316
20,CGTAAGAA,0.349
21,CTATTGAC,0.131
22,AGAGCTGC,-0.211
23,AGTATAGC,0.0553
24,GATAATCC,-0.195
25,AAGTCCCT,-0.299

row,Sequence,PBM E-score
1,GGAGAAGA,-0.152
2,TCCCCTCA,-0.118
3,CTTTGCTA,0.103
4,GCGTTTAC,0.00205
5,CGCCGTAA,-0.055
6,CTGCTCGA,-0.256
7,AAACTCGA,-0.11
8,CGCGTGCC,-0.0538
9,CAGAAGAC,0.165
10,AGGTCCAG,-0.16
11,TAGCCCCA,-0.118
12,ACCATATG,0.029
13,ACACATGG,0.00953
14,CCCCCTCC,-0.245
15,GTGAGGCA,0.00089
16,CTAAGGAA,0.00302
17,ATGTGCCC,-0.0472
18,GAGAACGC,-0.0995
19,CCTGAGTC,-0.25
20,ACCATGTA,0.142
21,ATTTGGTG,0.0872
22,ATTCCGTA,0.246
23,ATCACCGG,-0.179
24,CTCGCCAA,-0.192
25,GCTTAAAC,-0.133

row,Sequence,PBM E-score
1,CCGCATAG,-0.207
2,CATTACTC,0.184
3,AGGAGCAG,-0.285
4,AAACCATT,0.0296
5,GTAATGAA,0.281
6,ACGCACCC,0.156
7,CTCTGTAC,-0.238
8,ATCAGAAT,0.0915
9,CTACGTTC,0.272
10,AGCCCGCC,-0.17
11,GAACGCTC,-0.17
12,AGCAATCA,0.0445
13,ATATGACC,0.00457
14,CTTCATGA,0.0426
15,CAGCATGG,-0.0841
16,GAAATACC,-0.0276
17,GAAGCCCC,-0.274
18,AGGAGAGG,-0.274
19,AGGCAGGG,-0.179
20,ATAGGAAT,0.0126
21,CAGCGAGC,0.0417
22,GCCCCGCC,-0.13
23,CCTTCATA,0.0985
24,CGTCGTGA,0.15
25,ACTAACGA,0.108

row,Sequence,PBM E-score
1,AGGGGACT,-0.211
2,ACCTTTGG,-0.313
3,GAGTTAGC,-0.0138
4,GTGCGCAA,0.114
5,CGAACGCG,-0.0614
6,TCCCTCGA,-0.331
7,CGTTTCGC,0.0566
8,GCAACTAA,0.0507
9,GTCGTCTA,0.151
10,CAAGAAGC,0.0798
11,AGGCCTCA,-0.209
12,AGTAAACA,0.0928
13,CACCCGGA,-0.145
14,CCCCGGAC,-0.326
15,CAACGGAG,-0.2
16,CTTACAGC,0.11
17,CCACTCAG,-0.212
18,CTTACTAC,0.0969
19,ATCGCCCC,-0.243
20,GGAGGGAC,-0.217
21,CAGGACTG,-0.152
22,ATTTTTGG,-0.147
23,ACTAGTGC,-0.13
24,ACACTAAC,-0.0007
25,CACACCCA,0.0404

row,Sequence,PBM E-score
1,CGATAGAC,-0.0874
2,GTCTCCAA,-0.028
3,GTACTAAA,0.174
4,CCTCCTAC,-0.194
5,CCGACGTA,0.415
6,AGTGCACA,-0.263
7,AATATGGC,0.0296
8,AGCCTGTC,-0.21
9,CAAAATGC,0.0774
10,CCATGAGA,-0.0921
11,GCTATGTA,0.00334
12,AGGGTTAT,-0.0777
13,ATCAGTGG,-0.0843
14,GTGGGATA,-0.0827
15,ACATTGGG,-0.126
16,ACCAGGCA,-0.298
17,ATTCTACA,0.0629
18,AAATTGGG,0.0184
19,AGAGGGCC,-0.304
20,TACTTAGA,0.0287
21,CTAACGCC,-0.0831
22,AGCTCTCC,-0.231
23,CTTTTATA,0.056
24,TACAACCA,0.0683
25,ACGAATCC,0.162

row,Sequence,PBM E-score
1,CCTTACAG,-0.0733
2,CCGCAGTC,-0.114
3,TTGATCAA,0.205
4,ACGGACGA,0.0958
5,GTTGCGGA,0.0145
6,CAGTAACA,0.0121
7,CCAAGCCC,-0.212
8,AGCATCTG,-0.103
9,ATGTTTTA,0.171
10,TAACCTGA,0.00764
11,AGAGAGCC,-0.253
12,CCACGGTA,-0.195
13,ACGCGCTG,0.0381
14,AATGGGGA,-0.0924
15,GTCACCAA,0.193
16,TGGGGGAA,-0.169
17,GACACAAC,-0.0293
18,AAACAGTA,0.14
19,GCATATGA,0.147
